# Results reported in PubChem BioAssay AID445 (National Center for Advancing Translational Sciences (NCATS), 2006).
# The whole screen tested about 110,000 compounds, of which about 40 (0.04%) were called active. The shares of active, inactive and inconclusive entries below differ from those in the screen. The call rests on the fitted dose curve; in most records, active means well fitted curve in the direction sought with a large enough effect in the signal ratio (not every such curve was filed as active); inconclusive means small, poorly fitted or top-dose-only effect, or a change in a side signal; inactive means flat fitted curve, though single readings scatter; the % refers to the signal ratio. Potencies of inconclusive entries are doubtful fits and often do not repeat.
# Test: IkB Signaling;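 on IkBa stabilization activation: 0% = basal untreated cells and 100% = reference inhibitor full response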
# Settings: ABC-DLBCL IkBa-CBG/CBR dual luciferase ratio (green luciferase fused to IkBa over red control in OCI-Ly3 lymphoma cells), 4 h, scaled: untreated 0%
# Method in brief: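 Curves were fitted separately to fusion (green), unfused (red) and ratio luminescence, then classed by r2, magnitude and activity. Cells: OCI-Ly3, 4 h compound plus doxycycline at 37C; 10 uM MG-132 defined full response.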
# [1] = IkBa stabilization activation: at 57.1 µM (top of the series), proteasome inhibitor 100% unless noted
# Potency means the concentration at half of the fitted maximal effect.
smiles,measurement,setting,value
O=C(CSc1ncc(S(=O)(=O)c2ccc(Cl)cc2)c(=O)[nH]1)Nc1cccc(C(F)(F)F)c1,IkBa stabilization activation,[1],inconclusive: -0.879% [signal inhibitor]
COc1ccc(CNc2cc(-c3ccccc3CN(C)C)ncn2)c(OC)c1,IkBa stabilization activation,[1],"inactive: 0.254% [at 11.4 µM, scaled: untreated 0%, proteasome inhibitor 100%]"
Cc1cc(OCC(=O)N(Cc2ccc(N(C)C)cc2)CC2CCCO2)ccc1Cl (stereo unspecified),IkBa stabilization activation,[1],inconclusive: 2.06% [signal inhibitor]
CC(C)c1ccc2oc(-c3ccc(N)cc3)nc2c1,Potency,[1],"inconclusive: 0.0501 µM [signal inhibitor, full curve]"
COc1ccc(-c2cc3nc(C)c(CCC(=O)NC4CCCCC4)c(C)n3n2)c(OC)c1,Potency,[1],"inconclusive: 12.6 µM [signal inhibitor, partial curve]"
CCC(c1nnnn1C(C)(C)CC)N(CCCO)Cc1cc2cccc(C)c2[nH]c1=O (stereo unspecified),Potency,[1],"inconclusive: 39.8 µM [rising, single point]"
COc1ccc(C2CC(=O)c3cc(-c4nc(-c5ccc(Cl)cc5)cs4)c(=O)[nH]c3C2)cc1OC (stereo unspecified),IkBa stabilization activation,[1],inconclusive: 5.98% [signal inhibitor]
CCn1cc(C(=O)N2CCN(c3cccc(C)c3C)CC2)c2cc(OC)c(OC)cc2c1=O,IkBa stabilization activation,[1],inconclusive: 2.94% [signal inhibitor]
Cc1ccccc1C(=O)n1nc(-c2cccnc2)nc1NCc1ccccc1,IkBa stabilization activation,[1],inconclusive: 1.03% [signal inhibitor]
CCOC(=O)c1sc2nc(-c3ccco3)c3c(c2c1N)CC(C)(C)OC3,IkBa stabilization activation,[1],inconclusive: 10% [signal inhibitor]
Cc1ccc(CNC(=O)CCS(=O)(=O)c2cc(Br)cc3c2N(C(=O)C2CC2)CC3)cc1,IkBa stabilization activation,[1],inconclusive: 4.44% [signal inhibitor]
COc1cc2c(c(OC)c1OC)-c1ccc(OC)c(=O)cc1[C@@H](NC(C)=O)CC2,IkBa stabilization activation,[1],inconclusive: 11.9% [signal activator]
same,Potency,[1],"inconclusive: 0.0126 µM [signal activator, full curve]"
same,IkBa stabilization activation,"at 57.1 µM (top of the series), proteasome inhibitor 100%",inactive: 0.548%
O=C(Nc1ccc(Cl)cc1)N1CCN(c2ccc3nnc(-c4ccc(F)cc4)n3n2)CC1,IkBa stabilization activation,[1],inactive
CC(C)[C@H](CO)Nc1nc(Nc2cc(N)cc(Cl)c2)c2ncn(C(C)C)c2n1,IkBa stabilization activation,[1],inconclusive: -0.311% [signal inhibitor]
COc1ccccc1CCNC(=O)C(=O)NCC(c1ccco1)S(=O)(=O)c1ccc(C)cc1 (stereo unspecified),IkBa stabilization activation,[1],inconclusive: 2.73% [signal inhibitor]
Cc1cc(C)c(S(=O)(=O)NCC(c2cccs2)S(=O)(=O)c2ccccc2)c(C)c1 (stereo unspecified),Potency,[1],"inconclusive: 31.6 µM [rising, single point]"
Cc1ccc(NCc2nc3ccccc3n2CCOc2ccccc2)cc1,IkBa stabilization activation,[1],inconclusive: -5.83% [signal inhibitor]
CCCOc1cccc(C(=O)Nc2cccc(NC(=O)c3ccco3)c2)c1,Potency,[1],"inconclusive: 12.6 µM [signal inhibitor, partial curve]"
COc1ccccc1Nc1cc(C(=O)NCc2cccs2)c2ccccc2n1,IkBa stabilization activation,[1],inconclusive: 1.85% [signal inhibitor]
Clc1ccc(-c2nnc(NC3=NCCCCC3)o2)cc1,Potency,[1],"inconclusive: 5.01 µM [signal inhibitor, partial curve]"
CCc1nc(SCC(=O)N2CCC(C)CC2)c2c(=O)n(C)c(=O)n(C)c2n1,IkBa stabilization activation,[1],inactive
CCN(CC)c1nn2c(=O)c(C(=O)NCc3ccc(F)cc3)cnc2s1,IkBa stabilization activation,[1],inactive
Cc1nc(-c2ccccc2)sc1CCNS(=O)(=O)c1ccc(Br)cc1,IkBa stabilization activation,[1],inconclusive: 1.97% [signal inhibitor]
O=C1c2ccccc2-c2n[nH]c3cccc1c23,IkBa stabilization activation,[1],inactive
O=C(O)CCC(=O)c1ccc2sc3ccccc3c2c1,IkBa stabilization activation,[1],"inconclusive: 18.3% [signal inhibitor] [at 11.4 µM, scaled: untreated 0%, proteasome inhibitor 100%]"
O=C(c1ccc(OCCN2CCCCC2)cc1)c1c(-c2ccc(O)cc2)sc2cc(O)ccc12,IkBa stabilization activation,[1],inactive
Cc1cccc2sc(NC(=O)C3CCCO3)nc12 (stereo unspecified),IkBa stabilization activation,[1],inactive
O=C(NC(Cc1ccccc1)C(=O)N1CCN(c2ccccn2)CC1)c1ccco1 (stereo unspecified),IkBa stabilization activation,[1],inconclusive: 14.4% [signal inhibitor]
Cc1nc2cccc([N+](=O)[O-])c2n1CCCN(C)C,IkBa stabilization activation,[1],"inactive: -0.744% [at 11.4 µM, scaled: untreated 0%, proteasome inhibitor 100%]"
CN(C)S(=O)(=O)c1cccc(-c2nnc(SCc3ccc4c(c3)OCCO4)o2)c1,IkBa stabilization activation,[1],inconclusive: 2.21% [signal inhibitor]
Cc1cccc(N2CCN(C(=O)CS(=O)(=O)c3cccc4nsnc34)CC2C)c1 (stereo unspecified),IkBa stabilization activation,[1],inconclusive: 2.47% [signal inhibitor]
COCCn1c(=O)c(-c2ccc(F)cc2)nc2cnc(N(C)C)nc21,IkBa stabilization activation,[1],"inactive: -0.466% [at 11.4 µM, scaled: untreated 0%, proteasome inhibitor 100%]"
NC(=O)CSc1ncc2c(n1)-c1ccccc1N(Cc1cccc(F)c1)S2(=O)=O,IkBa stabilization activation,[1],inactive
Cc1ccccc1-n1nc2c(c1NC(=O)c1cc3ccccc3oc1=O)CS(=O)C2 (stereo unspecified),IkBa stabilization activation,[1],inactive
CC1(C)CC(=O)c2c(oc3c(Cl)cc(NS(=O)(=O)c4ccc(Cl)cc4)cc23)C1,IkBa stabilization activation,[1],inconclusive: 9.21% [signal inhibitor]
CN(C)S(=O)(=O)c1ccc2c(c1)N(CC(=O)N1CCN(c3ccc(F)cc3)CC1)CCS2,IkBa stabilization activation,[1],inconclusive: -1.27% [signal inhibitor]
Cc1ccc(-c2nc(CS(=O)CC(=O)N3CCN(c4ccc(Cl)cc4)CC3)c(C)o2)cc1 (stereo unspecified),IkBa stabilization activation,[1],inconclusive: -0.625% [signal inhibitor]
CC1CCN(c2ccc(-c3nc(C(C)C)no3)cc2[N+](=O)[O-])CC1,IkBa stabilization activation,[1],inconclusive: -0.794% [signal inhibitor]
O=C(Nc1cc(C(F)(F)F)ccc1N1CCCCC1)c1ccco1,IkBa stabilization activation,[1],inactive
Cc1ccc(-n2ncc(C(=O)NCCc3ccsc3)c2C2CCN(C(=O)OC(C)(C)C)CC2)cc1C,IkBa stabilization activation,[1],inactive
c1ccc(-c2ccc(-c3ccc(C4=NCCN4)cc3)o2)cc1,IkBa stabilization activation,[1],"inactive: -4.38% [at 11.4 µM, scaled: untreated 0%, proteasome inhibitor 100%]"
COc1cc(-c2noc(-c3ccc(NCc4cccnc4)c([N+](=O)[O-])c3)n2)cc(OC)c1OC,IkBa stabilization activation,[1],inactive
C=CCn1c(SCC(=O)Nc2ccc3c(c2)OCO3)nnc1-c1cc(Br)ccc1O,IkBa stabilization activation,[1],inconclusive: 7.16% [signal inhibitor]
COc1ccc(OC)c(CNC(=O)CCCn2ccc3cc(S(=O)(=O)N4CCCC4)ccc32)c1,IkBa stabilization activation,[1],inconclusive: 1.82% [signal inhibitor]
CCOc1ccc(CNC(=O)CCC(=O)N2CC(C)Sc3ccccc32)cc1 (stereo unspecified),IkBa stabilization activation,[1],inconclusive: -0.234% [signal inhibitor]
CCOc1ccc(CCNC(=O)CCCn2nc(C)c3sc4ccccc4c3c2=O)cc1OCC,IkBa stabilization activation,[1],inconclusive: -5.13% [signal inhibitor]
O=C(CSc1nccn1-c1ccccc1)Nc1nc2ccccc2s1,IkBa stabilization activation,[1],inconclusive: 3.01% [signal inhibitor]
CCCc1cc(=O)[nH]c(Nc2ccc(C(=O)O)cc2)n1,IkBa stabilization activation,[1],inconclusive: 4.28% [signal inhibitor]
CCn1c2ccccc2c2nnc(SCCN3CCCCC3)nc21,IkBa stabilization activation,[1],inactive
COc1ccc(-n2c(=O)c(C)nc3cnc(Oc4cccc(Cl)c4)nc32)cc1,IkBa stabilization activation,[1],"inactive: 0.0386% [at 11.4 µM, scaled: untreated 0%, proteasome inhibitor 100%]"
COC(=O)CC1c2cc(OC)c(OC)cc2CCN1C(=O)Nc1ccc(C)cc1Cl (stereo unspecified),IkBa stabilization activation,[1],inconclusive: 0.255% [signal inhibitor]
CCn1c(N2CCN(CC(=O)c3c[nH]c4ccccc34)CC2)nc2c1c(=O)[nH]c(=O)n2C,IkBa stabilization activation,[1],inactive
COc1ccccc1Nc1nn2c(=O)c3ccc(C(=O)NCCCOC(C)C)cc3nc2s1,IkBa stabilization activation,[1],inconclusive: 0.198% [signal inhibitor]
CCc1ccc(CNC(=O)c2cccc(-n3cnc4cccnc43)c2C)cc1,IkBa stabilization activation,[1],inconclusive: 0.334% [signal inhibitor]
CCC1CN(C(=O)N2CCC(C(=O)NCCN(C)C)CC2)c2ccccc2O1 (stereo unspecified),IkBa stabilization activation,[1],inconclusive: 0.92% [signal inhibitor]
Cc1ccc(NC(=O)c2cnc(SCC(=O)N3CCOCC3)n(C)c2=O)cc1,IkBa stabilization activation,[1],inactive
COc1cc2ccccc2cc1C(=O)Nc1cccc(-c2nc3cc(C)c(C)cc3o2)c1C,IkBa stabilization activation,[1],inactive
Cn1cccc1C(=O)OCc1csc(-c2ccccc2)n1,Potency,[1],"inconclusive: 31.6 µM [signal inhibitor, partial curve]"
Cc1ccc(CN(C(=O)COc2cccc([N+](=O)[O-])c2)c2ccccn2)o1,IkBa stabilization activation,[1],inconclusive: -0.982% [signal inhibitor]
N#Cc1cccc(-c2nc(NCc3cccnc3)c3ccccc3n2)c1,IkBa stabilization activation,[1],"inactive: 0.848% [at 11.4 µM, scaled: untreated 0%, proteasome inhibitor 100%]"
N#CCCN1CCN(C(=S)c2ccc(-c3cc(Cl)ccc3Cl)o2)CC1,IkBa stabilization activation,[1],inactive
O=S(=O)(Nc1ccc(Cl)cc1)c1ccc(NS(=O)(=O)c2ccc3c(c2)OCCO3)cc1,IkBa stabilization activation,[1],inconclusive: -6.98% [signal inhibitor]
OCCCc1nc2ccccc2n1CCOc1ccccc1,Potency,[1],"inconclusive: 12.6 µM [signal inhibitor, partial curve]"
CCC(=O)N1CCc2cc(Br)cc(S(=O)(=O)N3CCCC(C(=O)Nc4ccc(OC)c(Cl)c4)C3)c21 (stereo unspecified),IkBa stabilization activation,[1],inconclusive: -1.95% [signal inhibitor]
